Reference: PubChem BioAssay AID1963576 (National Center for Advancing Translational Sciences (NCATS), 2024)
The whole screen tested about 46,000 compounds, of which about 60 (0.1%) were called active. Not shown: some 3% with an inconclusive outcome. Calls come from the whole dose curve; as a rule, active = well fitted inhibition curve with a large enough effect; inconclusive = small, poorly fitted or top-dose-only effect; inactive = no such curve, though single readings can be large or run the other way. Some of the results follow.

experiment: Primary qHTS assay for Inhibitors of ovarian cancer metastasis using an organotypic tumor microenvironment (TME) model.; note: nearly all actives have a fitted effect of over 65% in size;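 for activity change, negative = inhibition: plate controls were DMSO wells for no effect and tomatine positive control wells for full effect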; details: SKOV3ip1-GFP adhesion/invasion on 3D omental model, fluorescence; series mostly up to 45.8 µM; activity change, negative = inhibition: at the top concentration
Outline: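 Adhesion/invasion was scored as fixed GFP-labeled SKOV3ip1 cell counts (488/509 nm), normalized to DMSO and tomatine controls. Cancer cells in serum-free medium, with four compound doses (0.36-46 umol/L), sat 2 hr at RT then 16 hr at 37 C on a 48 hr fibroblast/mesothelial/ECM culture.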

Row | SMILES | activity change, negative = inhibition | outcome
1 | C[C@H]1COc2c(N3CCN(C)CC3)c(F)cc3c(=O)c(C(=O)O)cn1c23 | inactive: 9.46% | 
2 | COc1cc2ccccc2cc1C(=O)Nc1ccc2oc(-c3ccc(F)cc3Cl)nc2c1 |  | inactive
3 | CCc1ccc(CNC(=O)c2c(C)oc3ncnc(N4CCOCC4)c23)cc1 |  | inactive
4 | COc1cccc(C(=O)Nc2c(C(=O)N3CCN(c4ccc(F)cc4)CC3)oc3ccccc23)c1 |  | inactive
5 | O=C(Cc1ccc(F)cc1)Nc1nnc2n1CCS2 |  | inactive
6 | Cc1cccc(NC(=O)N2CCC3(CC2)Oc2ccccc2C(=O)N3Cc2ccccc2F)c1C | inactive: 1.13% | 
7 | CCOc1ccc(C(=O)c2oc3ccccc3c2NC(=O)Cc2coc3ccc(CC)cc23)cc1 | inactive: -6.33% | 
8 | CCOc1ccccc1-n1nnc(-c2nsc(NC(=O)c3ccc(C)cc3)n2)c1C |  | inactive
9 | CCc1ccccc1OCC(=O)Nc1ccc(S(=O)(=O)Nc2nc(C)cc(C)n2)cc1 |  | inactive
10 | O=C(NCCn1ccc2ccccc21)c1ccc(Cl)cc1 |  | inactive
11 | COc1ccccc1NC(=O)CSc1nc(-c2ccc(C(C)(C)C)cc2)c(C#N)c(=O)[nH]1 | inactive: -26.1% | 
12 | CC(C)c1ccc(Nc2cc(C(=O)NC3CCCCC3)c3ccccc3n2)cc1 | inactive: -4.82% | 
13 | CCc1ccc2occ(CC(=O)Nc3ccccc3C(F)(F)F)c2c1 | inactive: -7.99% | 
14 | CCc1cccc(-n2c(=O)c3cccnc3n2CC(=O)Nc2ccc(F)c(C)c2)c1 | inactive: -3.8% | 
15 | COc1ccc(/C=C/C(=O)Nc2nc3n(n2)C(c2ccc(F)cc2)C=C(c2ccccc2)N3)cc1 (stereo not given) | inactive: 11.3% | 
16 | COc1ccc(NC(=O)Cn2c(=O)n(Cc3nc(-c4ccccc4)no3)c(=O)c3ccccc32)cc1Cl |  | inactive
17 | CSc1cccc(Nc2cc(C(=O)NCCCN(C)c3ccccc3)c3ccccc3n2)c1 | inactive: -9.52% | 
18 | CCOC(=O)c1c(-c2ccc(C)cc2)csc1NC(=O)c1cc(=O)c2ccc(C)cc2o1 | inactive: -14.1% | 
19 | COc1ccc(NC(=O)C2CCCN(S(=O)(=O)c3ccc(Br)s3)C2)cc1 (stereo not given) | inactive: -14.9% | 
20 | CC(=O)N1CCc2cc(S(=O)(=O)NC(C(=O)Nc3ccc(C)cc3C)C(C)C)ccc21 (stereo not given) |  | inactive
21 | NC(CO)C(=O)NNCc1ccc(O)c(O)c1O (stereo not given) | inactive: -8.11% | 
22 | COc1cc(C(=O)n2nc(C)c(Sc3ccc(Cl)cc3)c2C)cc(OC)c1OC |  | inactive
23 | O=C(NCc1cccs1)c1ccc(CSc2nc3cccnc3n2Cc2ccccc2F)cc1 | inactive: 4.29% | 
24 | CCc1ccc(NC(=O)Cn2c(=O)n(Cc3ccco3)c(=O)c3oc4ccccc4c32)cc1 | inactive: -7.36% | 

Row | SMILES | activity change, negative = inhibition | outcome
25 | CC(C)c1ccc(NC(=O)CN2C(=O)COc3ccc(S(=O)(=O)N4CCCCCC4)cc32)cc1 |  | inactive
26 | COc1cccc(CNC(=O)Cc2c(C(=O)O)c(C)cn2C)c1 | inactive: -1.31% | 
27 | COc1ccc(CC(=O)NCC(c2cccs2)S(=O)(=O)c2ccc(C)cc2)cc1 (stereo not given) | inactive: -0.94% | 
28 | CCc1cccc(N2C(=O)CSC23C(=O)Nc2ccccc23)c1 (stereo not given) | inactive: 26.1% | 
29 | COc1ccc(S(=O)(=O)Nc2c(C)nc3nc(C)[nH]n3c2=O)cc1 | inactive: 0.367% | 
30 | CCOC(=O)c1c(C)n(-c2ccccc2)c2ccc(OC(=O)c3cccc(OC)c3OC)cc12 | inactive: 1.01% | 
31 | O=C(NCc1cccc(Cl)c1)c1ccc2nc(N3CCCCC3)sc2c1 |  | inactive
32 | COc1ccccc1N1CCN(c2ncnc3onc(-c4cccc(Cl)c4)c23)CC1 |  | inactive
33 | Cc1oc(-c2ccccc2Cl)nc1CSc1nc2ncccc2[nH]1 | inactive: 9.59% | 
34 | Cc1cc(C)c(NC(=O)Cn2cnc3c(oc4ccccc43)c2=O)c(C)c1 | inactive: 26.1% | 
35 | CCOc1ccc(CNS(=O)(=O)c2ccc3c(c2)CCCN3C(C)=O)cc1OC | inactive: -17% | 
36 | CCc1nnc2c(N3CCN(c4cc(Cl)ccc4C)CC3)nc3ccccc3n12 | inactive: -4.85% | 
37 | CCOC(=O)C1CCCN(C(=O)c2nn(-c3ccc(C)cc3)c(=O)n(C)c2=O)C1 (stereo not given) | inactive: 3.03% | 
38 | CC1CCN(C(=O)c2cc(-c3ccc(Br)cc3)on2)CC1 |  | inactive
39 | CCCN(C(=O)c1cc2c(=O)[nH]c3ccc(C)cc3c2s1)c1ccc(CC)cc1 | inactive: 0.981% | 
40 | CC(C)c1ccc(N2C(=O)CSC23C(=O)N(C)c2ccccc23)cc1 (stereo not given) |  | inactive
41 | O=C1[C@@H]2CSC(c3ccc(Cl)cc3)N2C(=O)N1c1ccccc1 (stereo not given in full) | inactive: -24.3% | 
42 | COc1ccc(-c2noc(COc3cc(C)ccc3C)n2)cc1OC | inactive: -6.23% | 
43 | O=C(COc1ccc(F)cc1)Nc1ccc2nc(SCC(=O)N3CCOCC3)sc2c1 | inactive: -4.47% | 
44 | CCOc1ccc(NC(=O)CCNS(=O)(=O)c2cccc3nonc23)cc1 | inactive: 3.22% | 
45 | COc1ccc(C2=NC(c3ccncc3)=Nc3ccc(OC)cc3N2)cc1 | inactive: -5.78% | 
46 | COc1ccc(-c2noc(N3CCC(C(=O)N4CCN(c5cccc(C)c5C)CC4)CC3)n2)cc1 | inactive: -7.74% | 
47 | COc1ccc2c(c1)c(N1CCCC1=O)c(C(=O)Nc1ccccc1C(F)(F)F)n2C | inactive: 9.02% | 
48 | COc1ccc(C2=C(C)C(=O)N(Cc3ccc(C(=O)NCc4cccc(C)c4)cc3)S2(=O)=O)cc1 | inactive: -5.41% | 

Row | SMILES | activity change, negative = inhibition | outcome
49 | Cc1c(C(=O)N(Cc2ccc(N(C)C)cc2)CC2CCCO2)oc2ccc(Cl)cc12 (stereo not given) |  | inactive
50 | CCOc1ccc(Nc2nc3cc(Cl)c(Cl)cc3nc2-n2nc(C)cc2C)cc1 | inactive: 17.7% | 
51 | COc1ccc(Cl)cc1NC(=O)c1cn(C2CCCCC2)c(=O)c2c1c1ccccc1n2C | inactive: 4.25% | 
52 | COc1ccc(N2CCN(c3csc4ccc(Cl)cc4c3=O)CC2)cc1 | inactive: -10.3% | 
53 | COc1ccccc1CCNC(=O)C1CCN(c2nnc(-n3cccc3CNc3ccc(C)cc3)s2)CC1 | inactive: -26.5% | 
54 | COc1ccccc1Cn1cc(C(=O)c2ccc(C)cc2)c(=O)c2cc(C)ccc21 | inactive: -10.7% | 
55 | Cc1ccc(-n2nc(CO)c(C(=O)NCCCc3ccccc3)n2)cc1C |  | inactive
56 | CCN(c1ccccc1)c1ccc2cc(S(=O)(=O)N3CCCC3)ccc2n1 | inactive: -6.25% | 
57 | Cc1cnn(C)c1C(=O)Nc1cc(Nc2ccc3c(C=Cc4ccccn4)n[nH]c3c2)ccc1F | inactive: 12.9% | 
58 | CCc1ccccc1Nc1nn2c(=O)c3ccc(C(=O)NCc4ccccc4OC)cc3nc2s1 | inactive: -4.66% | 
59 | CCOC(=O)c1c(C)[nH]c(C)c1S(=O)(=O)N1CCCC(C(=O)Nc2ccc(C)cn2)C1 (stereo not given) |  | inactive
60 | CCOc1ccc(Nc2ncnc3c2nc2n3CCCC2)cc1 | inactive: 4.09% | 
61 | Cc1ccc(C)c(S(=O)(=O)c2nnn3c2nc(NC(C)C)c2sccc23)c1 | inactive: 2.4% | 
62 | O=C(O)c1ccc2nc(-c3cc4cccc(O)c4oc3=O)[nH]c2c1 | inactive: -8.14% | 
63 | NS(=O)(=O)c1ccc(NC(=O)CN2C(=O)COc3ccc(Cl)cc32)cc1 | inactive: 18.5% | 
64 | COc1ccc(CNC(=O)c2cc(-c3ccc(C)cc3)nc3n[nH]c(-c4ccc(Br)cc4)c23)cc1 | inactive: -15.8% | 
65 | Cc1ccccc1C(=O)NC1(C(F)(F)F)N=C(c2ccccc2)N(C2CCCCC2)C1=O (stereo not given) | inactive: 55.5% | 
66 | CCOC(=O)c1oc2ccc(S(=O)(=O)n3nc(-c4cc(OC)c(OC)c(OC)c4)cc3N)cc2c1C | inactive: 7.51% | 
67 | CCOC(=O)CNC(=O)Nc1cc(C(=O)NCc2ccccc2OC)ccc1N1CCCC1 | inactive: 7.88% | 
68 | CCOc1ccc2nc(Cl)c(C3CC(c4ccc(OC)cc4)=NN3S(C)(=O)=O)cc2c1 (stereo not given) |  | inactive
69 | CCOc1ccc(NC(=O)CSc2ccc(-c3sc(-c4ccccc4)nc3C)nn2)cc1 | inactive: 3.18% | 
70 | CCOc1ccccc1CNC(=O)c1c(C)oc2ncnc(N3CCOCC3)c12 | inactive: 1.84% | 
71 | COc1ccc(Cl)cc1NC(=O)C1CCCN(c2ncnc3onc(C)c23)C1 (stereo not given) | inactive: 6.28% | 
72 | CCC(Oc1ccccc1F)C(=O)N1CCC(c2nc3ccccc3s2)CC1 (stereo not given) | inactive: 5.86% | 

Row | SMILES | activity change, negative = inhibition | outcome
73 | O=C(NC(=O)c1ccccc1)Nc1ccc(-c2cc(C(F)(F)F)nn2-c2ccccc2)cc1 | inactive: 1.75% | 
74 | COC(=O)C(CCSC)NC(=O)c1cc2c(n(-c3ccc(Cl)cc3)c1=O)CCCC2=O (stereo not given) | inactive: 17.3% | 
75 | CCOc1ccc(NC(=O)C2CCCN(c3ccc(Sc4ccc(C)cc4)nn3)C2)cc1 (stereo not given) |  | inactive
76 | CC(C)C(=O)Nc1ccccc1OCc1cc(=O)n2ccccc2n1 | inactive: -6.45% | 
77 | O=C(CCCN1C(=O)C(c2ccccc2)Oc2cccnc21)Nc1ccccc1C(F)(F)F (stereo not given) |  | inactive
78 | Cc1ccc2oc(-c3ccc(C)c(NC(=O)c4ccc(N5CCC(C)CC5)c([N+](=O)[O-])c4)c3)nc2c1 | inactive: -10.6% | 
79 | CCCn1c(CNC(=O)c2ccc(F)cc2)nc2ccccc21 | inactive: -27.7% | 
80 | Cc1cccc(NC(=O)c2cc3c(=O)n4cccc(C)c4nc3s2)c1C | inactive: -14.6% | 
81 | O=c1c2cc3c(cc2n(Cc2ccc(F)cc2)c(=O)n1Cc1nc(-c2ccccc2)no1)OCO3 | inactive: -46.3% | 
82 | Cc1cccc(NC(=O)c2ccc3snnc3c2)c1C |  | inactive
83 | COC(=O)c1c(SC)nc2ccccc2c1OCc1ccc(Cl)cc1 |  | inactive
84 | COc1cc(CNC(=O)c2ccc3nc(CCc4ccccc4)oc3c2)cc(OC)c1OC | inactive: 8.22% | 
85 | CCOc1ccccc1NC(=O)C(CC(C)C)NS(=O)(=O)c1ccc2c(c1)oc(=O)n2C (stereo not given) |  | inactive
86 | O=C1c2c(O)cc(O)cc2O[C@H](c2cc(O)c(O)c(O)c2)[C@H]1O | inactive: -2.97% | 
87 | C[C@]12C=CC(=O)C=C1CC[C@@H]1[C@@H]2[C@@H](O)C[C@@]2(C)[C@@H]1CC[C@]2(O)C(=O)CO | inactive: 8.91% | 
88 | COc1ccc2c(c1)CCc1c(C(=O)Nc3c(C)nn(Cc4ccccc4C)c3C)noc1-2 | inactive: -13.7% | 
89 | Clc1ccc2c(c1)NC(c1ccncc1)=NC(c1cccs1)=N2 | inactive: 3.24% | 
90 | CCN1CCN(C(=O)c2cnn(-c3cccc(Cl)c3)c2C2CCN(C(=O)OC(C)(C)C)CC2)CC1 | inactive: 7.92% | 
91 | O=C(COCc1cc(-c2ccc3c(c2)OCO3)on1)N1CCN(c2cccc(Cl)c2)CC1 | inactive: -3.96% | 
92 | O=c1cc(-c2ccccc2)nc(SCc2nc(-c3ccc(Cl)cc3)no2)[nH]1 |  | inactive
93 | Cc1ccc(S(=O)(=O)N(Cc2nc(-c3cccc(C)c3)no2)C2CCCCC2)cc1 | inactive: -5.02% | 
94 | CNS(=O)(=O)c1cn(CC(=O)N2CCN(c3cccc(C)c3C)CC2)cc1S(=O)(=O)NC | inactive: 18.5% | 
95 | Cc1cc(F)ccc1NC(=O)CCS(=O)(=O)c1ccc2c(c1)CC(C)N2C(=O)C1CC1 (stereo not given) | inactive: 0.686% | 
